Results taken from the supplement of paper PMC4967469.

What was measured:
Test in all cases: Viability of human cancer cell lines after 72 h of drug (GDSC screen)
[1] = compound: CC1=C(/C=C/C(C)=C/C=C/C(C)=C/C(=O)O)C(C)(C)CCC1 [Tretinoin]; details: top dose 10 µM; top dose inferred
Method: (§1)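 Human cancer cell lines in 384-well plates, medium with 10% serum, drug for 72 h over a 256-fold dose range (nine 2-fold or five 4-fold steps up to the top dose). Adherent lines were fixed and stained with the nucleic acid dye Syto60, suspension lines read with resazurin; signal relative to control wells, capped at 0 and 100%. One two-parameter sigmoid per drug and line, fitted in a mixed model over all curves with the slope shared within a line.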

[2] = compound: CCn1c(-c2nonc2N)nc2c(C#CC(C)(C)O)ncc(OC[C@H]3CCCNC3)c21 [GSK690693]; details: top dose 10.24 µM; top dose inferred
Method: as §1

[3] = compound: COc1cc2c(NC3CCN(C(C)C)CC3)nc(C3CCCCC3)nc2cc1OCCCN1CCCC1 [UNC0638]
Method: as §1

[4] = compound: O=C(NCCCNc1nc(Nc2cccc(NC(=O)N3CCCC3)c2)ncc1I)c1cccs1 [BX-795]; details: top dose 5 µM; top dose inferred
Method: as §1

[5] = compound: Oc1cccc(-c2nc(N3CCOCC3)c3oc4ncccc4c3n2)c1 [PI-103]; details: top dose 10.24 µM
Method: as §1

[6] = compound: Cc1cccc(-c2[nH]c(C(C)(C)C)nc2-c2ccc3c(c2)OCO3)n1 [SB-505124]; details: top dose 10 µM; top dose inferred
Method: as §1

[7] = top dose 40 µM, screen: GDSC drug entry 245
[8] = top dose 20 µM, screen: GDSC drug entry 1236, top dose inferred

Row | Cell Line | AUC [1] | IC50 [1] | AUC [2] | IC50 [2] | AUC [3, 7] | IC50 [3, 7] | AUC [4] | IC50 [4] | AUC [5] | IC50 [5] | AUC [3, 8] | IC50 [3, 8] | AUC [6] | IC50 [6]
1 | NCI-H647 (non-small cell lung carcinoma, adherent) | 0.97 | > 10 µM | 0.956 | > 10.2 µM | 0.738 | 12.5 µM | 0.801 | 2.58 µM | 0.359 | 0.256 µM | – | – | – | –
2 | NCI-H835 (lung carcinoid, suspension) | 0.987 | > 10 µM | – | – | – | – | 0.939 | > 5 µM | – | – | 0.836 | 12.3 µM | 0.99 | > 10 µM
3 | NCI-H1048 (small cell lung carcinoma, adherent) | 0.98 | > 10 µM | 0.806 | 4.6 µM | 0.942 | > 40 µM | 0.782 | 1.87 µM | – | – | 0.989 | > 20 µM | 0.98 | > 10 µM
4 | NCI-H1105 (small cell lung carcinoma, suspension) | 0.981 | > 10 µM | – | – | – | – | 0.809 | 2.07 µM | – | – | 0.941 | > 20 µM | 0.991 | > 10 µM
5 | NCI-H1341 (small cell lung carcinoma, suspension) | 0.972 | > 10 µM | – | – | – | – | 0.909 | > 5 µM | – | – | 0.918 | > 20 µM | 0.947 | > 10 µM
6 | NCI-H2052 (mesothelioma, adherent) | 0.983 | > 10 µM | 0.963 | > 10.2 µM | 0.846 | > 40 µM | 0.944 | > 5 µM | 0.913 | > 10.2 µM | – | – | – | –
7 | NCI-H3122 (lung adenocarcinoma, adherent) | 0.983 | > 10 µM | 0.958 | > 10.2 µM | 0.76 | 14.5 µM | 0.909 | > 5 µM | 0.507 | 0.669 µM | – | – | – | –
8 | NCI-N87 (stomach, adherent) | 0.966 | > 10 µM | – | – | – | – | 0.964 | > 5 µM | – | – | 0.869 | > 20 µM | 0.955 | > 10 µM
9 | OCI-LY7 (B-cell lymphoma, suspension) | 0.956 | > 10 µM | – | – | – | – | 0.613 | 0.585 µM | – | – | 0.855 | 9.38 µM | 0.993 | > 10 µM
10 | OCUM-1 (stomach, adherent) | 0.987 | > 10 µM | 0.987 | > 10.2 µM | 0.958 | > 40 µM | 0.874 | > 5 µM | 0.987 | > 10.2 µM | – | – | – | –
11 | PA-1 (ovary, adherent) | 0.953 | > 10 µM | 0.799 | 3.72 µM | 0.691 | 7.48 µM | 0.748 | 1.31 µM | 0.192 | 0.104 µM | – | – | – | –
12 | PWR-1E (prostate, adherent) | 0.948 | > 10 µM | – | – | – | – | 0.811 | 2.63 µM | – | – | 0.986 | > 20 µM | 0.986 | > 10 µM
13 | RCH-ACV (B-cell leukaemia, suspension) | 0.96 | > 10 µM | – | – | – | – | 0.638 | 0.697 µM | – | – | 0.825 | 9.25 µM | 0.98 | > 10 µM
14 | RH-18 (rhabdomyosarcoma, adherent) | 0.939 | > 10 µM | – | – | – | – | 0.894 | > 5 µM | – | – | 0.644 | 3.33 µM | 0.983 | > 10 µM
15 | RKN (ovary, adherent) | 0.985 | > 10 µM | 0.944 | > 10.2 µM | 0.738 | 12.5 µM | 0.767 | 1.97 µM | – | – | 0.808 | 11.1 µM | 0.85 | 8.24 µM
16 | RVH-421 (melanoma, adherent) | 0.973 | > 10 µM | 0.939 | > 10.2 µM | 0.682 | 9.8 µM | 0.887 | > 5 µM | – | – | 0.76 | 9.58 µM | 0.964 | > 10 µM
17 | SAT (head and neck, adherent) | 0.897 | > 10 µM | 0.975 | > 10.2 µM | 0.779 | 26.9 µM | 0.807 | 4.55 µM | 0.817 | > 10.2 µM | – | – | – | –
18 | SCC90 (head and neck, adherent) | 0.981 | > 10 µM | – | – | – | – | 0.956 | > 5 µM | – | – | 0.886 | > 20 µM | 0.978 | > 10 µM
19 | SK-GT-2 (stomach, adherent) | 0.984 | > 10 µM | – | – | – | – | 0.86 | 4.56 µM | – | – | 0.791 | 9.48 µM | 0.973 | > 10 µM
20 | SK-MEL-31 (melanoma, adherent) | 0.983 | > 10 µM | – | – | – | – | 0.956 | > 5 µM | – | – | 0.921 | > 20 µM | 0.983 | > 10 µM
21 | STS-0421 (soft tissue, adherent) | 0.936 | > 10 µM | – | – | – | – | 0.811 | 3.23 µM | – | – | 0.762 | 8.28 µM | 0.942 | > 10 µM
22 | SUP-B8 (B-cell leukaemia, suspension) | 0.968 | > 10 µM | – | – | – | – | 0.805 | 2.5 µM | – | – | 0.87 | 18.3 µM | 0.982 | > 10 µM
23 | T-T (oesophagus, adherent) | 0.935 | > 10 µM | 0.987 | > 10.2 µM | 0.748 | 12.8 µM | 0.844 | 3.56 µM | – | – | 0.985 | > 20 µM | 0.882 | > 10 µM
24 | TC-YIK (cervix, suspension) | 0.977 | > 10 µM | – | – | – | – | 0.803 | 2.1 µM | – | – | 0.703 | 4.25 µM | 0.733 | 2.58 µM
25 | TT (thyroid, adherent) | 0.965 | > 10 µM | 0.983 | > 10.2 µM | 0.978 | > 40 µM | 0.921 | > 5 µM | – | – | 0.893 | > 20 µM | 0.959 | > 10 µM
26 | U-266 (myeloma, semi-adherent) | 0.701 | 2.83 µM | – | – | – | – | 0.932 | > 5 µM | – | – | 0.805 | 14.7 µM | 0.969 | > 10 µM
27 | VMRC-LCD (lung adenocarcinoma, adherent) | 0.99 | > 10 µM | – | – | – | – | 0.778 | 1.69 µM | – | – | 0.873 | 14 µM | 0.992 | > 10 µM
28 | ZR-75-30 (breast, adherent) | 0.977 | > 10 µM | – | – | – | – | 0.983 | > 5 µM | – | – | 0.889 | > 20 µM | 0.981 | > 10 µM

IC50 is the fitted dose that halves viability relative to control wells, and lower means more sensitive; fits outside the tested doses are given as limits. AUC is the area under the same curve over the 256-fold range up to the top dose, as a fraction; values near 1 show little effect. For some of these results: Where the top dose is marked as inferred, it was derived from the fitted curves, not read from the paper. For some of these results: An entry number marks a drug with two screens in the source, which often give different values.
